Experimental data published in PubChem BioAssay AID938 (National Center for Advancing Translational Sciences (NCATS), 2007).
In all, about 73,000 compounds went through this assay and about 1,800 (2.5%) were called active. Not shown: some 13% with an inconclusive outcome. Calls follow the shape of the dose curve; as a rule, active = well fitted activation curve with a large enough effect; inconclusive = small, poorly fitted or top-dose-only effect; inactive = no such curve, though single readings can be large or run the other way. The list shows a part of the results, in another mix than the full data.

Assay: qHTS Assay for Agonists of the Thyroid Stimulating Hormone Receptor: Activators of Intracellular cAMP Concentrations in Parental HEK 293; also: nearly all actives have a fitted effect of over 55% in size; as to activation: % of control where 0% means no effect
Conditions: parental HEK293 CNG cAMP sensor, membrane potential fluorescence; series mostly up to 57.1 µM; activation: at the top concentration
Excerpt: NIH Chemical Genomics Center [NCGC]
NIH Molecular Libraries Screening Centers Network [MLSCN]
PI Name: Dr. Marvin Gershengorn
This cell based assay utilized a cyclic nucleotide gated ion channel (CNG) as a biosensor for cAMP induction. HEK 293 cells stably expressing the modified CNG were purchased from BD biosciences (http://www.atto.com/products/actone/features_benefits.shtml) . Stimulation of cAMP production causes the CNG to open and subsequent membrane depolarization to occur. A fluorescent membrane potential dye (BD biosciences) was utilized to detect cAMP stimulation in cells.
The cells were maintained in DMEM medium (Invitrogen) containing 10 % FBS (Hyclone), 100 units/ml Penicillin, 100 ug/ml Streptomycin (Invitrogen), and 250 ug/ml Geneticin (Invitrogen) and 1 ug/ml Puromycin (Invitrogen) at 37C in 5% CO2. This assay was used as a counterscreen to "qHTS Assay for Agonists of the Thyroid Stimulating Hormone Receptor", to control for compounds signaling through endogenous receptors and other targets of HEK 293 cells.
NCGC Assay Protocol Summary:
High Throughput Screening. Freshly passaged cells were dispensed into 1536-well assay plates at 4 ul/well in DMEM containing phenol red (Invitrogen), 10% FCS (Hyclone), and 100 units/ml Penicillin, 100 ug/ml Streptomycin (Invitrogen) and incubated at 37 C with 5% CO2 for 20 to 36 hrs before the robotic screening. The screen was initiated by addition of 4 ul/well membrane potential dye containing 100 uM RO 20-1724 (Sigma Aldrich), followed by 60 min incubation at room temperature to allow for dye equilibration across the cell membrane. 23 nl/well compound or control was then added to the assay plates, which were incubated for additional 30 min before reading a Envision fluorescence plate reader (Perkin Elmer) in bottom-read mode for fluorescence intensity (emission at 590 nm).
Keywords: cAMP, CNG Ion Channel, quantitative high throughput screening, qHTS, HTS, probe identification, CNG, cAMP, cyclic nucleotide gated ion channel PubChem
Potency is read from the fitted curve at half-maximal effect.

Structure (SMILES) | Potency | activation
COc1ccccc1-c1noc(-c2ccccc2C(=O)Nc2ccccc2)n1 | active: 25.1 µM | –
C=C(C)C(=O)OCC(C)C | – | inactive: -3.74%
COc1cc(N)c(Cl)cc1C(=O)N[C@H]1CCN(CCCOc2ccc(F)cc2)C[C@H]1OC | – | inactive: -1.08% [at 25.6 µM]
COc1ccc(C)cc1NC(=O)COCC(=O)O | – | inactive: 20.5%
CCCCOC(=O)CNc1nnc(SCC(=O)OCC)[nH]c1=O | – | inactive: -43%
N#Cc1c2c(c(NCCCN3CCOCC3)n3c1nc1ccccc13)CCC2 | – | inactive: -54%
Nc1ccc(Cl)cc1Cl | – | inactive: -29.4%
CC(C)(C)CC(C)(C)c1ccc(OCCOCC[N+](C)(C)Cc2ccccc2)cc1 | – | inactive: 18.6%
COC(=O)CC1Oc2ccccc2N(Cc2ccccc2)C1=O (stereo not drawn) | – | inactive: -57.3%
COc1cccc(Cn2c(=O)c(-c3cccc(C#N)c3)nc3cnc(N4CCN(C)CC4)nc32)c1 | – | inactive: -78.4%
O=C(c1cc(C2CC2)on1)N1CCN(c2ccc(F)cc2)CC1 | – | inactive: 15.3%
Cc1oc2c(O)c(O)ccc2c(=O)c1-c1cnn(-c2ccccc2)c1 | – | inactive: -32.1%
COC(=O)CCN(C(C)=O)c1ccc(N)cc1 | – | inactive: -67%
CCc1c(C#N)c(SCc2c(C)noc2C)nc2c1C(=O)CC(C)(C)C2 | active: 12.6 µM | –
NC(=O)c1ccccc1 | inactive | –
Cc1cc(-c2nnc3n2N=C(c2ccc(-c4ccccc4)cc2)CS3)n[nH]1 | active: 31.6 µM | –
CCCCc1oc2ccccc2c1C(=O)c1cc(I)c(OCCN(CC)CC)c(I)c1 | – | inactive: 0.716% [at 25.6 µM]
CCCCc1c2ccccc2nc2[nH]c3ccccc3c12 | active: 12.6 µM | –
COc1ccc(C)cc1S(=O)(=O)N(CC(=O)O)c1ccccc1 | – | inactive: -37.2%
O=C(O)c1cc2cc(F)ccc2[nH]1 | – | inactive: 24.1%
CC(=O)N[C@H](c1ccccc1)[C@@]1(C)C[C@@H]1[C@@H](C)C(=O)Nc1ccc2ccccc2c1 | – | inactive: -2.97%
O=C(/C=N/O)NCC1CCNCC1 | – | inactive: -60.2%
c1cc2c(cc1Nc1nc(-c3ccc4c(c3)OCO4)cs1)OCCO2 | – | inactive: -32.2%
Cc1ccc(-c2cc(C(=O)N3CCCC3)no2)cc1 | – | inactive: -44.4%
CC(/C=C/C=C(C)/C=C/C(=O)O)=C\C=C\C=C(C)\C=C\C=C(C)\C=C\C(=O)O | – | inactive: 31.1%
OCCN1CCN(C(=S)c2ccc(Cl)c(Cl)c2)CC1 | – | inactive: -60%
CCS(=O)(=O)N1CCC(C(=O)NCCN2CCN(Cc3ccccc3)CC2)CC1 | – | inactive: -2.5%

Structure (SMILES) | Potency | activation
CCOC(=O)c1c(-c2ccccc2)c(C(C)=O)c(=O)n(C)c1C | – | inactive: 9.96%
O=C(O)CC1C(=O)NCCN1Cc1ccc(F)c(F)c1 (stereo not drawn) | – | inactive: 4.57%
O=c1oc2ccc(Br)cc2cc1-c1nc2ccccc2o1 | – | inactive: -46.4%
CN(C)CC[C@@H](c1ccccc1)c1ccccn1 | – | inactive: 3.55% [at 25.6 µM]
CC(C)OC(=O)CSc1nc2cccnc2n1C1CCCCC1 | active: 15.8 µM | –
Cc1nc2sccn2c(=O)c1CCN1CCC(=C(c2ccc(F)cc2)c2ccc(F)cc2)CC1 | inactive | –
CCOC(=O)c1ccc(-n2ncc(C(=O)OCC)c2N)cc1 | – | inactive: -2.35%
CNc1sc(C(=O)c2cccs2)c(N)c1-c1nc2ccccc2s1 | – | inactive: -47%
COc1ccc2nc(C)cc(Nc3ccc(N4CCOCC4)cc3)c2c1 | – | inactive: -53.3%
CC1CCCC(C)N1C(=O)Cn1c(SCC(=O)NCc2ccc3c(c2)OCO3)nc2ccccc21 (stereo not drawn) | active: 15.8 µM | –
CC(C)CC1(C(=O)NCCN2CCOCC2)C=CCN1C(=O)c1ccccc1 (stereo not drawn) | – | inactive: 23.3%
CCOC(=O)CCn1nc(-c2ccc(Cl)cc2)cc1N | – | inactive: 7.3%
CCC/C=C(\CCC)C(NS(=O)(=O)c1cccc2cccnc12)c1ccc(C(=O)OC)cc1 (stereo not drawn) | – | inactive: 35.7%
N=c1nc(N2CCCCC2)cc(N)n1O | inactive | –
COC(=O)c1sc(NC(=O)c2ccc(Cn3cc(Cl)cn3)o2)c(C#N)c1C | – | inactive: -34.1%
O=C(CSc1nnc(-c2cnccn2)n1Cc1ccco1)c1ccc(Cl)c(Cl)c1 | active: 25.1 µM | –
Nc1nc2c(nc(Br)n2[C@@H]2O[C@H]3COP(=O)(O)O[C@H]3[C@@H]2O)c(=O)[nH]1 | – | inactive: -3.67%
CCN(CC)CCNC(=O)C(C(=O)c1ccccc1)n1ccccc1=O (stereo not drawn) | – | inactive: -139%
O[C@@](CCN1CCCCC1)(c1ccccc1)C1CCCCC1 | – | inactive: 32.1% [at 25.6 µM]
Cc1ccc(S(=O)(=O)N(CC(=O)O)Cc2cccc(C)c2)cc1 | – | inactive: 6.31%
N#CCCn1c(=O)c(-c2cc(F)cc(F)c2)nc2cnc(Oc3ccccc3)nc21 | – | inactive: -30.7%
COc1ccc(CNc2cc(-c3ccccc3C)ncn2)c(OC)c1 | active: 15.8 µM | –
COc1ccc(-c2nc3cnccn3c2Nc2ccc3c(c2)OCO3)cc1 | – | inactive: -31.1%
Clc1ccc(C(c2ccccc2Cl)C(Cl)Cl)cc1 (stereo not drawn) | – | inactive: 4.97%
CC12CCC(C(=O)NCc3ccccc3)(OC1=O)C2(C)C (stereo not drawn) | – | inactive: -56.3%
COc1ccc(S(=O)(=O)N2CCC(C(=O)N3CCc4ccccc4C3)CC2)cc1 | active: 31.6 µM | –
